Data reported in ChEMBL document CHEMBL4888484, “Replenishing the malaria drug discovery pipeline: Screening and hit evaluation of the MMV Hit Generation Library 1 (HGL1) against asexual blood stage Plasmodium falciparum ,using a nano luciferase reporter read-out” (2022).
In all, about 150,000 compounds went through this assay and about 540 (0.36%) showed an effect of 50% or more. The list shows a part of the results.

The molecules below were run on Plasmodium falciparum (assay: Primary screen in NF54 nanoGlo assay, in single point, at 2uM, 72h; a lower Z score goes with more inhibition). Conditions: timepoint 72 hour.
Type: functional, Erythrocyte
In the case of `Cc1nnc(Oc2cccc(Cl)c2)c2ccccc12`, the “% Inhibition” value is reported as -11% and the Z score is reported as 1.01.
For `O=C(COc1ccc(Cl)cc1Br)N(C1CCCC1)[C@H]1CCS(=O)(=O)C1`, the “% Inhibition” value was -4% and the Z score was 0.94.
With `CCN(CC)C(=O)Nc1cc(OC)c(OC)cc1Br` the “% Inhibition” value was -8% and the Z score was 1.19.
`CCn1cnnc1CN(C)Cc1[nH]nc(C)c1Cl` was tested, and the “% Inhibition” value was -7% and the Z score was 1.39.
For `Cc1csc([C@H](C)NS(=O)(=O)CCc2scnc2C)n1`, the “% Inhibition” value was 6% and the Z score was -0.58.
In the case of `CCn1cc(C(=O)NCc2cccnc2Oc2ccc(F)cc2F)cn1`, the “% Inhibition” value is reported as -8% and the Z score is reported as 1.58.
With `O=C(Nc1nc2c(s1)CCCCCC2)[C@H]1CCS(=O)(=O)C1` the “% Inhibition” value was -7% and the Z score was 0.83.
`CCCN(CC(=O)O)C(=O)c1cc(F)c(C)cc1F` was tested, and the “% Inhibition” value was -8% and the Z score was 0.86.
For `O=c1c2ccccc2ncn1C[C@H]1CC[C@H](C(=O)Nc2ccc(Cl)cc2Cl)CC1`, the “% Inhibition” value was -9% and the Z score was 1.32.
`COc1ccc(Cn2cc([C@H](CC(N)=O)c3ccc(OCc4ccccc4)c(OC)c3)c3ccccc32)cc1` was tested, and the “% Inhibition” value was -8% and the Z score was 1.21.
For `O=C(CN1CCCC1)N(c1ccccc1)C1CCCCC1`, the “% Inhibition” value was 21% and the Z score was -2.68.
`CN(C)CCN(Cc1ccco1)C(=O)N[C@H]1CCc2c(F)cccc21` was tested, and the “% Inhibition” value was 5% and the Z score was -0.45.
In the case of `Cc1ccc(-c2cn[nH]c2[C@H]2CCCN(C(=O)c3nccn3C)C2)cc1`, the “% Inhibition” value is reported as -14% and the Z score is reported as 1.8.
In the case of `CNCc1cc(Cl)c(O)c(Cl)c1`, the “% Inhibition” value is reported as -1% and the Z score is reported as 0.14.
With `Nc1nonc1-n1nnc(C(=O)c2ccccc2)c1-c1ccccc1` the “% Inhibition” value was -8% and the Z score was 1.55.
`CC(C)Nc1ncc(-c2nc(C3CCOCC3)n[nH]2)cn1` was tested, and the “% Inhibition” value was 4% and the Z score was -0.69.
With `C[C@H](NC(=O)c1ccc(O)nc1)c1ccc(OCc2cccnc2)cc1` the “% Inhibition” value was 2% and the Z score was -0.34.
`CC(=O)NCCC(=O)NC[C@H]1CC[C@H](CO)CC1` was tested, and the “% Inhibition” value was -5% and the Z score was 0.6.
For `N#CC1(c2nc([C@H]3CC(=O)N(CC4CCC4)C3)no2)CCC1`, the “% Inhibition” value was 17% and the Z score was -2.2.
With `CCNC(=O)N1CCN(c2nc3ccccc3c3nnc(-c4ccccc4C)n23)CC1` the “% Inhibition” value was -6% and the Z score was 0.93.
In the case of `Cc1cc(C)cc(C2CCN(C(=O)C3CCOC3)C2)c1` (stereo unspecified), the “% Inhibition” value is reported as -13% and the Z score is reported as 1.98.
With `CCOC(Cn1cc(C(=O)Nc2nc(C)cs2)nn1)OCC` the “% Inhibition” value was 6% and the Z score was -0.76.
For `C[C@H]1CCn2c(nc3cc(C(=O)NCc4ccco4)ccc32)C1`, the “% Inhibition” value was -9% and the Z score was 1.22.
With `COC(=O)[C@H](C)NC(=O)c1cc(C)c(C)cc1Cl` the “% Inhibition” value was -12% and the Z score was 1.36.
In the case of `COCC(=O)N(CCN1CCOCC1)Cc1csc(COc2cccc(C)c2C)n1`, the “% Inhibition” value is reported as 10% and the Z score is reported as -1.26.
`CN(C)c1ccc([C@@H](CNC(=O)C2CCCC2)c2c[nH]c3ccccc23)cc1` was tested, and the “% Inhibition” value was 1% and the Z score was -0.11.
For `Cc1cnn(C)c1S(=O)(=O)N1CCC=C(c2cnn(C)c2)C1`, the “% Inhibition” value was 11% and the Z score was -2.09.
In the case of `CCN(C(=O)Nc1cccn(Cc2ccc(F)cc2)c1=O)[C@H]1CCN(Cc2ccccc2)C1`, the “% Inhibition” value is reported as 1% and the Z score is reported as -0.11.
With `CCc1ncc(-c2cc(C(=O)N(CC)C(C)C)c3c(C)cc(C)cc3n2)cn1` the “% Inhibition” value was 6% and the Z score was -0.82.
In the case of `CCCC(=O)Nc1ccc(CNC(=O)c2cccc[n+]2[O-])cc1`, the “% Inhibition” value is reported as -11% and the Z score is reported as 1.43.
With `Cc1cc(C)c(CNC(=O)N(C)Cc2c(C)noc2C)c(=O)[nH]1` the “% Inhibition” value was -12% and the Z score was 1.55.
In the case of `CCNc1ccc(Br)cc1C(=O)O`, the “% Inhibition” value is reported as -11% and the Z score is reported as 1.65.
With `Cc1csc(-c2cc(NC(=O)c3ccc(C(C)(C)C)cc3)c(C)s2)n1` the “% Inhibition” value was 7% and the Z score was -0.78.
`CCOC(=O)c1c(N)c2cccnc2n1C` was tested, and the “% Inhibition” value was -7% and the Z score was 1.43.
`Cc1ccc(N2CN(CC(=O)NC3CCCC3)S(=O)(=O)c3cccnc32)cc1` was tested, and the “% Inhibition” value was -12% and the Z score was 1.29.
`COc1ccc(OC)c(S(=O)(=O)N[C@H]2CO[C@H]3[C@@H]2OC[C@@H]3Nc2nccc(-c3ccco3)n2)c1` was tested, and the “% Inhibition” value was 4% and the Z score was -0.45.
With `COc1cc(-c2cnc(N)cc2C)c(Cl)cn1` the “% Inhibition” value was 5% and the Z score was -0.65.
With `CN(C)c1cc(C(=O)Nc2[nH]ncc2-c2cccc(Cl)c2)ccn1` the “% Inhibition” value was -3% and the Z score was 0.42.
In the case of `Cc1ccc2nc(O)c(CCC(=O)NCc3cccnc3)cc2c1`, the “% Inhibition” value is reported as -1% and the Z score is reported as 0.11.
With `CN1C(=O)NC(C)(C2CCCN(CC(O)c3cccc(F)c3)C2)C1=O` (stereo unspecified) the “% Inhibition” value was -2% and the Z score was 0.3.
For `CN(Cc1ccncc1)Cc1csc(-c2cccs2)n1`, the “% Inhibition” value was 1% and the Z score was -0.18.
With `CC(C)CN1CCN(S(=O)(=O)c2cc(Cl)sc2Cl)CC1` the “% Inhibition” value was -11% and the Z score was 1.38.
In the case of `Cc1nc2ccc(N3C[C@@H](C(N)=O)CC3=O)cc2s1`, the “% Inhibition” value is reported as -7% and the Z score is reported as 0.97.
